Experimental data from the supplement of paper PMC8047034.
Where a name gives a salt, the structure may show the parent alone. The list shows a part of the results. Most values come without repeats; read them as rough.

tested on: OVCAR4; assay: log2 surviving fraction (library drug vs vehicle, or drug + carboplatin vs carboplatin alone; relative to plate median); ovarian cancer lines: OVCAR4 is platinum-sensitive and Ov4Carbo platinum-resistant; higher = more cell survival; conditions: library drug concentration 10 µM; 7 days; carboplatin co-treatment 0 µM

Compound | log2 surviving fraction
O=S(=O)(O)Oc1ccc(C(c2ccc(OS(=O)(=O)O)cc2)c2ccccn2)cc1 [Sodium Picosulfate] | 0.361
C[C@]12CC[C@@H]3c4ccc(O)cc4CC[C@H]3[C@@H]1CC[C@@H]2O [Estradiol] | 0.306
CC(=O)[C@@]1(O)CC[C@H]2[C@@H]3CCC4=CC(=O)CCC4=C3[C@@H](c3ccc(N(C)C)cc3)C[C@@]21C [Ulipristal] | -1.51
O=C(NCCO[N+](=O)[O-])c1cccnc1 [Nicorandil (Ikorel)] | -0.158
O=C(Nc1ccc([N+](=O)[O-])cc1Cl)c1cc(Cl)ccc1O [Niclosamide (Niclocide)] | -8.03
CC(C)/N=c1\cc2n(-c3ccc(Cl)cc3)c3ccccc3nc-2cc1Nc1ccc(Cl)cc1 [Clofazimine] | -1.25
CC(C)c1nc(CN(C)C(=O)N[C@@H](CCN2CCOCC2)C(=O)N[C@H](CC[C@H](Cc2ccccc2)NC(=O)OCc2cncs2)Cc2ccccc2)cs1 [Cobicistat (GS-9350)] | -1.4
Clc1ccc(COC(Cn2ccnc2)c2ccc(Cl)cc2Cl)c(Cl)c1 (configuration not stated) [Miconazole nitrate] | -2.63
COC(=O)CCc1ccc(OCC(O)CNC(C)C)cc1 (configuration not stated) [Esmolol HCl] | -0.137
CCOC(=O)c1cncn1[C@H](C)c1ccccc1 [Etomidate] | 0.48
CC[C@H](C)C(=O)O[C@H]1C[C@@H](C)C=C2C=C[C@H](C)[C@H](CC[C@@H]3C[C@@H](O)CC(=O)O3)[C@H]21 [Lovastatin (Mevacor)] | -1.89
N#CC1(c2ccc(NC(=O)c3cccnc3NCc3ccncc3)cc2)CCCC1 [Apatinib (YN968D1)] | -2.86
Cc1cc(-n2c(=O)[nH]c(=O)n(C)c2=O)ccc1Oc1ccc(SC(F)(F)F)cc1 [toltrazuril] | 0.389
Nc1ccc(S(=O)(=O)Nc2ccccn2)cc1 [Sulfapyridine (Dagenan)] | 0.63
CNCCCC12CCC(c3ccccc31)c1ccccc12 [Maprotiline hydrochloride] | -1.98
CCCc1cc(C(N)=S)ccn1 [Protionamide (Prothionamide)] | 0.322

Compound | log2 surviving fraction
CC(C)c1nc(N(C)S(C)(=O)=O)nc(-c2ccc(F)cc2)c1/C=C/[C@@H](O)C[C@@H](O)CC(=O)O [Rosuvastatin calcium (Crestor)] | -1.04
CC1CCc2cc(F)cc3c(=O)c(C(=O)O)cn1c23 (configuration not stated) [Flumequine] | 0.633
CCC(=O)O[C@]1(C(=O)CCl)[C@@H](C)C[C@H]2[C@@H]3CCC4=CC(=O)C=C[C@]4(C)[C@@]3(F)[C@@H](O)C[C@@]21C [Clobetasol propionate] | -1.59
NC(=O)CC[C@H](N)C(=O)O [L-Glutamine] | 0.616
C[C@H](CCC(=O)O)[C@H]1CC[C@H]2[C@@H]3[C@H](O)C[C@@H]4C[C@H](O)CC[C@]4(C)[C@H]3CC[C@]12C [Chenodeoxycholic acid] | 0.839
O=C(O)[C@H](CC(=O)N1C[C@H]2CCCC[C@H]2C1)Cc1ccccc1 [Mitiglinide calcium] | 0.313
C[C@]12CC[C@H](O)C[C@H]1CC[C@@H]1[C@@H]2C[C@@H](O)[C@]2(C)[C@@H](C3=CC(=O)OC3)CC[C@]12O [Digoxigenin] | -10.1
CCOc1nc2cccc(C(=O)O)c2n1Cc1ccc(-c2ccccc2-c2nnn[nH]2)cc1 [Candesartan (Atacand)] | 0.647
Cc1nc2n(c(=O)c1CCN1CCC(c3noc4cc(F)ccc34)CC1)CCCC2 [Risperidone (Risperdal)] | 0.529
CCCCC1C(=O)N(c2ccccc2)N(c2ccccc2)C1=O [Phenylbutazone (Butazolidin, Butatron)] | 0.528
O=C(O)c1ccc(NC(=O)[C@H](Cc2ccc(O)cc2)NC(=O)c2ccccc2)cc1 [Bentiromide] | 0.481
CC(C(=O)O)c1cccc(Oc2ccccc2)c1 (configuration not stated) [Fenoprofen calcium] | 0.956
Oc1cc(O)c(Cl)cn1 [Gimeracil] | 1.14
CCOC(=O)[C@H](CCc1ccccc1)N[C@@H](C)C(=O)N1CCC[C@H]1C(=O)O [Enalapril maleate (Vasotec)] | -8.54
CN1CCN(CCCN2c3ccccc3Sc3ccc(Cl)cc32)CC1 [Prochlorperazine Dimaleate] | -2.94
C[N+](C)(C)C[C@H](O)CC(=O)[O-] [L-carnitine (Levocarnitine)] | -0.524
